From PubChem BioAssay AID1963576 (National Center for Advancing Translational Sciences (NCATS), 2024)
The campaign covered roughly 46,000 compounds. About 60 (0.1%) were called active. About 3% were inconclusive and are not listed. Calls come from the whole dose curve; as a rule, active = well fitted inhibition curve with a large enough effect; inconclusive = small, poorly fitted or top-dose-only effect; inactive = no such curve, though single readings can be large or run the other way. The list shows a part of the results.

test: Primary qHTS assay for Inhibitors of ovarian cancer metastasis using an organotypic tumor microenvironment (TME) model.; note: nearly all actives have a fitted effect of over 65% in size;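 for activity change, negative = inhibition: plate controls were DMSO wells for no effect and tomatine positive control wells for full effect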; conditions: SKOV3ip1-GFP adhesion/invasion on 3D omental model, fluorescence; series mostly up to 45.8 µM; activity change, negative = inhibition: at the top concentration
Outline: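 Adhesion/invasion was scored as fixed GFP-labeled SKOV3ip1 cell counts (488/509 nm), normalized to DMSO and tomatine controls. Cancer cells in serum-free medium, with four compound doses (0.36-46 umol/L), sat 2 hr at RT then 16 hr at 37 C on a 48 hr fibroblast/mesothelial/ECM culture.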

Activity change, negative = inhibition, inactive:
CCOc1ccc2nc(N3CCCC(C(=O)Nc4ccc(OC)c(Cl)c4)C3)sc2c1 (centres undefined) -0.256%
Cc1cc(-c2ccc(C)c(S(=O)(=O)NCCc3ccc(S(N)(=O)=O)cc3)c2)on1 17%
CC(C)c1ccc(NS(=O)(=O)c2ccc3[nH]cc(C(=O)NCC4CCCO4)c(=O)c3c2)cc1 (centres undefined) -0.471%
COc1cc(OC)c(NC(=O)n2ncc3cc(Cl)ccc32)cc1Cl 6.45%
COc1ccc(OC)c(NC(=O)CSC2=Nc3ccccc3C3=NC(CC(=O)NCc4ccc(F)cc4)C(=O)N23)c1 (centres undefined) -3.73%
COc1ccc(C2CC(=O)c3c([nH]c(C(=O)OC4CCCCCC4)c3C)C2)cc1 (centres undefined) -0.177%
COC(=O)c1ccccc1NC(=O)c1cc(C)nc2c1c(C)nn2-c1ccc(C)cc1 8.16%
Cc1ccc(NC(=O)N2CCN(c3nnc(C)c4c(C)n(-c5ccc(Cl)cc5)nc34)CC2)c(C)c1 2.9%
Cc1ccc(CNC(=O)CSc2ncc(S(=O)(=O)c3ccc(C)c(Cl)c3)c(=O)[nH]2)cc1 8.3%
O=C(Nc1ccccc1O)c1cc(S(=O)(=O)N2CCCC2)ccc1Cl -22.9%
Cc1ccc(Cl)cc1NC(=O)NCc1cccn1Cc1ccc(F)cc1 -1.58%
Cc1cccc(Cc2c(C)nc3nc(SCc4ccccc4Cl)nn3c2C)c1 4.44%
COC(=O)N1CCCc2cc(S(=O)(=O)N3CCN(c4ccccc4)CC3)ccc21 2.91%
COc1cc(Cl)c(C)cc1NC(=O)CSc1nc2c(c(=O)[nH]1)CCCC2 -0.634%
COc1cc(Cl)c(C)cc1NC(=O)CSc1cc(-c2ccccc2)nc(C)n1 -22.2%
COc1ccc(CC(=O)NCCc2csc(-c3ccc(C(F)(F)F)cc3)n2)cc1 -19.9%
CCOC(=O)c1[nH]c(C)c(C(=O)NCc2cccc(OC)c2)c1C -3.73%
CS(=O)(=O)n1nc(-c2ccco2)nc1NCc1ccccc1Cl -3.1%
COc1ccc(C(=O)c2cn(Cc3cccc(C)c3)c3cc4c(cc3c2=O)OCO4)cc1 12.5%
CCOc1ccc(NC(=O)c2sc3ccccc3c2Cl)cc1 -4.45%
Cc1ccc(NS(=O)(=O)c2ccc3c(c2)[C@H]2C=CC[C@H]2[C@@H](c2ccc(F)cc2)N3)cc1C 2.99%
Cn1c(=O)c2c(SCC(=O)NCc3ccc(F)cc3)nc(-c3ccccc3Cl)nc2n(C)c1=O 0.167%
Cc1c(/C=C(\C#N)C(=O)Nc2cccc(Cl)c2)c2ccccc2n1Cc1ccccc1 8.15%
COC(=O)c1sc2cccc(F)c2c1S(=O)(=O)Nc1ccc(C)cc1Cl -13.8%
C[C@H](NC(=O)C(=O)Nc1ccccc1C(C)(C)C)C(=O)N[C@@H](CC(=O)O)C(=O)COc1c(F)c(F)cc(F)c1F 13.8%
O=C(Nc1ccc2[nH]c(=O)c(=O)[nH]c2c1)c1cccc(F)c1 -11.4%
Cc1ccc(SCc2nc(-c3ccc(C(=O)Nc4cc(C)ccc4C)cc3)oc2C)cc1 -29.8%
O=C(Nc1nnc(C2CC(=O)N(c3ccc(Cl)cc3)C2)s1)c1ccco1 (centres undefined) 8%
Cc1ccc(NC(=O)CSc2nc3ccc(NC(=O)COc4ccc(C)cc4)cc3s2)cc1 9.55%
C[C@@H]1CN(Cc2ccc(F)cc2)[C@@H](C)CN1C(=O)c1cc2c(C(=O)C(=O)N(C)C)cn(C)c2cc1Cl 5.4%
Cc1nc2nc(SCC(=O)NCCc3ccc(Cl)cc3)nn2c(C)c1Cc1ccccc1Cl -1.98%
Cc1ccccc1C1=CCN(c2ncc(NC(=O)c3ccc(Cl)cc3)cc2C(=O)O)CC1 -7.72%
CCOc1ccccc1NC(=O)Nc1cc2c(cc1N1CCCCC1)n(CC)c(=O)n2CC -1.69%
CCOC(=O)c1ccc(NC(=O)CSc2nccn2-c2cc(C)cc(C)c2)cc1 4.66%
CC(=O)c1ccc(N2CCN(C(=O)CCn3cnc4onc(-c5ccc(F)cc5)c4c3=O)CC2)cc1 9.5%
Cc1ccc(-c2noc(-c3cc(-c4ccc(F)cc4)n[nH]3)n2)cc1 -23.4%
O=C(Nc1c(-c2ccccc2)nc2ccccn12)c1ccccc1F -2.77%
CCN(C(=O)C1CCCN(c2ncnc3c2nc2n3CCCCC2)C1)c1cccc(C)c1 (centres undefined) 10.4%
Cc1ccc(NC(=O)CN2C(=O)c3ccccc3Sc3ccc(C(=O)N4CCOCC4)cc32)c(Cl)c1 8.96%
CCN(CC)S(=O)(=O)c1ccc2oc(C(=O)Nc3cc(C)ccc3OC)c(C)c2c1 -12.8%
CCc1cc2c(cc3c(=O)n(CC(=O)NCc4cc(Br)ccc4OC)ncn32)s1 8.02%
Cn1cccc1-c1cc2n(n1)CCC(=O)N2CCCC(=O)NCc1ccc(F)cc1 1.32%
CCOc1ccc(-c2nnc(SCC(=O)c3ccccc3)n2-c2ccccc2)cc1 -7.24%
COC(=O)CNC(=O)N1CCN(S(=O)(=O)c2ccc3c(ccn3C)c2)CC1 -9.75%
CCOc1ccc(NC(=O)C2CCN(S(=O)(=O)c3c(C)noc3/C=C/c3cccs3)CC2)cc1 -1.4%
CCCCNC(=O)CN1C(=O)COc2ccc(S(=O)(=O)N3CCCCCC3)cc21 4.31%
COc1ccc2cc(CNc3ccc(OC)c(OC)c3)c(=O)n(CC(=O)Nc3ccccc3F)c2c1 4.22%
CCOC(=O)c1[nH]c(C)c(CCC(=O)Nc2cccc(SC)c2)c1C 2.17%
Cc1cc(=O)[nH]c2nnc(SCc3ccc(C(F)(F)F)cc3)n12 -5.95%
Cc1cccc(C)c1NC(=O)Cn1c(SCC(=O)NCc2ccccc2)nc2ccccc21 0.658%
Cc1ccc(NC(=O)c2ncoc2-c2ccco2)cc1Cl 1.16%
Fc1cccc(Cl)c1CNCCSc1nnnn1-c1ccccc1 2.19%
O=C(Nc1cc2ccc(O)cc2oc1=O)c1ccccc1 -23.8%
CC(C)CCNC(=O)c1ccc2c(c1)N(Cc1ccccc1F)C(=O)c1ccccc1S2(=O)=O -7.42%
COc1cccc(C(=O)N(Cc2ccco2)c2ccccn2)c1 3.58%
CCN1C(=O)c2ccccc2S(=O)c2ccc(C(=O)NCc3ccc(C)cc3)cc21 (centres undefined) -9.89%
COc1ccc(NC(=O)CC2C(=O)N(c3ccccc3)C(=O)N2CCC2=CCCCC2)cc1 (centres undefined) -2.11%
Cc1ccc2c(c1)c(=O)c(C(=O)c1ccccc1)cn2Cc1ccccc1F -16.2%
Cc1cccc(N2CC(c3nc4ccc(C)cc4[nH]3)CC2=O)c1 (centres undefined) 12.9%
CCOc1ccccc1C1C(C(N)=O)=C(C)Nc2nc(-c3ccccc3Cl)nn21 (centres undefined) 6.27%
COc1ccc(/C=C(/C#N)c2nc(-c3cc4ccccc4oc3=O)cs2)cc1 1.26%
Cc1c(CNC2CCC(C)CC2)c(C(=O)O)c(C)n1Cc1ccccc1F (centres undefined) 2.1%
Cn1ccc2cc(S(=O)(=O)N3CCCC(C(=O)NCc4ccc(F)cc4)C3)ccc21 (centres undefined) -6.58%
Cc1cc(C)n(CCc2nc3c4ccccc4nc(SCc4ccc(Cl)cc4)n3n2)n1 12.2%
CCOc1ccc(NC(=O)CC2C(=O)N(c3ccc(C)cc3)C(=O)N2C2CCCCC2)cc1 (centres undefined) 2.19%
N#Cc1cccc(NC(=O)C2CCN(c3cnccn3)CC2)c1 -0.245%

outcome, inactive:
COc1cccc(OCC(=O)NC2CC(=O)N(c3ccc4c(c3)OCCO4)C2)c1 (centres undefined)
COc1ccc2c(c1)c1c(c(=O)n(-c3ccc(OC)c(OC)c3)c(=O)n1CC(=O)N1CCCC1)n2C
Cc1ccc2nc(-c3ccc(NC(=O)c4ccccc4S(C)(=O)=O)cc3)sc2c1
CCOc1ccc(OCC)c(NC(=O)CCc2nc3cccnc3n2Cc2cccs2)c1
COc1ccc(-c2nc(C)c(CCNC(=O)c3c(F)cccc3F)s2)cc1
Cc1ccc(C)c(Cn2c(=O)n(CCC(=O)NCc3ccc4c(c3)OCO4)c(=O)c3sccc32)c1
CCCCNC(=O)CCCn1c(=O)c2ccccc2n(Cc2c(C)cc(C)cc2C)c1=O
CN(C)c1ccc(CNC(=O)c2cnc3sc(N4CCCCCC4)nn3c2=O)cc1
CCOC(=O)c1cccc(NC(=O)CC2C(=O)N(c3ccc(C)cc3)C(=O)N2Cc2cccc(OC)c2)c1 (centres undefined)
CCc1ccccc1NC(=O)Cn1c(=O)n(CC(=O)NCCc2ccccc2)c(=O)c2ccccc21
COc1ccc(-c2noc(-c3ccc(C)cc3Cl)n2)cc1OC
COc1ccc(C2CC(=O)Nc3c2c(=O)n(C)c2nc4ccccc4n32)cc1 (centres undefined)
COc1ccccc1N1CCN(C(=O)CCn2nc(C)c(S(=O)(=O)N3CCCC3)c2C)CC1
Cc1nc2c(-c3ccccc3)c(C)nn2c(C)c1CCC(=O)Nc1ccccc1F
CCOc1ccccc1CNCc1c(C(=O)O)n(Cc2ccc(F)cc2)c2cc(C)ccc12
O=C1CC(c2ccc(F)cc2)c2c(c3ccccc3[nH]c2=O)O1 (centres undefined)
Cc1cc(C)cc(NC(=O)CNS(=O)(=O)c2ccc3nc(C)sc3c2)c1
CCn1cc(C(=O)NCCc2ccc(C)cc2)c(=O)c2cc(S(=O)(=O)N3CCc4ccccc4C3)ccc21
CCOc1ccc(OC(=O)c2c(-c3ccccc3Cl)noc2C)cc1
CN1C(=O)Cc2cc(S(=O)(=O)CCC(=O)Nc3ccc(OC(F)(F)F)cc3)ccc21
COc1ccc(C(=O)Nc2ccc3oc(-c4ccc5ccccc5c4)nc3c2)cc1Br
O=C(CNC(=O)c1ccccc1F)OCc1cc(=O)n2nc(C3CCCCC3)sc2n1
COc1cc(NC(=O)C2CCN(S(=O)(=O)c3c(C)noc3/C=C/c3cccs3)CC2)cc(OC)c1
COc1ccc(S(=O)(=O)N(CC(=O)Nc2ccc(OC)cc2OC)c2ccc(Cl)cc2)cc1
CCOc1cccc(C(=O)Nc2nnc(S(=O)(=O)N(C)c3ccc(C)cc3)s2)c1
CCC1CN(C(=O)Nc2ccccc2C(F)(F)F)c2ccccc2O1 (centres undefined)
COc1ccc(-c2nc(SCC(=O)c3ccc(Br)cc3)n[nH]2)cc1
O=C(NC1(C(F)(F)F)N=C(c2ccccc2)N(C2CCCCC2)C1=O)c1ccc(F)cc1 (centres undefined)
